For experiment [1], the target named is T1, S. cerevisiae MBP–Orc3 (S. cerevisiae), P54790.
T1 chain: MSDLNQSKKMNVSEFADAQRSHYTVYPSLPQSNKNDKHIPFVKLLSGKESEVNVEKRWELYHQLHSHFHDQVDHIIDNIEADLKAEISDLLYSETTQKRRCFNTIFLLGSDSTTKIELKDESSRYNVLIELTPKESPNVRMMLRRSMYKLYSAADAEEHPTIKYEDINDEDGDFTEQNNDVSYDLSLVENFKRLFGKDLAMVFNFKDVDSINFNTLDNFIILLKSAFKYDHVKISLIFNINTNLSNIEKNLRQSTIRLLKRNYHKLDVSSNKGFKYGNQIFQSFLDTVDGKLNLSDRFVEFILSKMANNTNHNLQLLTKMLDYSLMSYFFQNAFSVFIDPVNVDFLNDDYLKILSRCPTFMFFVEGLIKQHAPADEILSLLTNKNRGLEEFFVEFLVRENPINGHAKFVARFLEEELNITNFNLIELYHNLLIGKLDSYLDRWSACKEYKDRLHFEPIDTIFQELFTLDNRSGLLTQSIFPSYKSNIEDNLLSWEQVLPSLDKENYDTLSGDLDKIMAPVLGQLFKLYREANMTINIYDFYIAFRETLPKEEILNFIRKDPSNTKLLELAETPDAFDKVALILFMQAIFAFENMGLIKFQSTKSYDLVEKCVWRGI
The experiment can be described thus: pull-down; N-terminally MBP-tagged bait and N-terminally 6×His-tagged prey (with further ORC subunits where named) co-expressed in High5 cells by baculovirus co-infection; clarified lysate (50 mM Tris HCl pH 7.8, 300 mM KCl, 10% glycerol, 1 mM DTT; 0.78 M ammonium sulfate step) on amylose beads, three washes; Coomassie-stained SDS-PAGE, anti-His Western blot for some preys. The following applies: remark: other sources report otherwise.

Experiment [2] concerns the target T2, S. cerevisiae MBP–Orc3 (S. cerevisiae) (UniProt P54790).
T2 sequence: T1 chain
Described as above.

Substitutions are numbered along the chain they refer to. In names and notes the source's numbering stands. No constants are given. Whether binding was seen depends on the method and setting. Binding seen in cells or lysates may run through a third protein. Some entries that bind do so weakly or less than the wild type. Where a sequence is shown, tags or fusion partners need not be part of it.

This passage reports binding results from paper PMC3791464 (eLife, 2013).

B1: S. cerevisiae Orc6 wild type, His-tagged, P38826 1-435 (protein)
chain: MSMQQVQHCVAEVLRLDPQEKPDWSSGYLKKLTNATSILYNTSLNKVMLKQDEEVARCHICAYIASQKMNEKHMPDLCYYIDSIPLEPKKAKHLMNLFRQSLSNSSPMKQFAWTPSPKKNKRSPVKNGGRFTSSDPKELRNQLFGTPTKVRKSQNNDSFVIPELPPMQTNESPSITRRKLAFEEDEDEDEEEPGNDGLSLKSHSNKSITGTRNVDSDEYENHESDPTSEEEPLGVQESRSGRTKQNKAVGKPQSELKTAKALRKRGRIPNSLLVKKYCKMTTEEIIRLCNDFELPREVAYKIVDEYNINASRLVCPWQLVCGLVLNCTFIVFNERRRKDPRIDHFIVSKMCSLMLTSKVDDVIECVKLVKELIIGEKWFRDLQIRYDDFDGIRYDEIIFRKLGSMLQTTNILVTDDQYNIWKKRIEMDLALTEPL
For B1, the binding result in experiment [1] is reported as “binds”.

B2: S. cerevisiae Orc6-Y418S, His-tagged (protein, UniProt P38826 1-435)
chain: B1 chain with Y418S
As to B2, in experiment [2], the binding entry is reported as “no binding”.
